# Data: the supplement of paper PMC8728848
# The list shows a part of the results.
# Key:
# Test in all cases: glycan array binding signal (z-score within array); higher = stronger binding
# Settings in all cases: glycan notation: IUPAC condensed, linker removed
# [1] = biological target: Fuc(a1-2)Gal(b1-4)GlcNAc(b1-3)Gal(b1-4)GlcNAc(b1-3)Gal(b1-4)GlcNAc
# In short: (§1)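 Glycan array data were curated from 3228 arrays in the Consortium for Functional Glycomics database and kept only where the protein sequence was available. Glycan names were converted to IUPAC-condensed notation, and columns mapping to the same glycan were averaged. The binding signal is a within-array Z-score, averaged across arrays of the same protein sequence at different concentrations or buffers and across linkers. Negative Z-scores can be read as non-binding.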
# [2] = biological target: Fuc(a1-2)Gal(b1-4)GlcNAc(b1-3)GalNAc
# In short: as §1
# [3] = biological target: Fuc(a1-2)Gal(b1-4)GlcNAc(b1-3)[Fuc(a1-2)Gal(b1-4)GlcNAc(b1-6)]GalNAc
# In short: as §1
# [4] = biological target: Fuc(a1-2)Gal(b1-4)GlcNAc(b1-6)GalNAc
# In short: as §1
# [5] = biological target: Fuc(a1-2)Gal(b1-4)GlcNAc6S
# In short: as §1
# [6] = biological target: Fuc(a1-2)Gal(b1-4)[Fuc(a1-3)]GlcNAc
# In short: as §1
# [7] = biological target: Fuc(a1-2)Gal(b1-4)[Fuc(a1-3)]GlcNAc(b1-2)Man(a1-3)[Fuc(a1-2)Gal(b1-4)[Fuc(a1-3)]GlcNAc(b1-2)Man(a1-6)]Man(b1-4)GlcNAc(b1-4)GlcNAc
# In short: as §1
# [8] = biological target: Fuc(a1-2)Gal(b1-4)[Fuc(a1-3)]GlcNAc(b1-2)Man(a1-6)[Fuc(a1-2)Gal(b1-4)[Fuc(a1-3)]GlcNAc(b1-2)Man(a1-3)]Man(b1-4)GlcNAc(b1-4)[Fuc(a1-6)]GlcNAc
# In short: as §1
# [9] = biological target: Fuc(a1-2)Gal(b1-4)[Fuc(a1-3)]GlcNAc(b1-2)[Fuc(a1-2)Gal(b1-4)[Fuc(a1-3)]GlcNAc(b1-4)]Man(a1-3)[Fuc(a1-2)Gal(b1-4)[Fuc(a1-3)]GlcNAc(b1-2)Man(a1-6)]Man(b1-4)GlcNAc(b1-4)GlcNAc
# In short: as §1
# [10] = biological target: Fuc(a1-2)Gal(b1-4)[Fuc(a1-3)]GlcNAc(b1-3)Gal(b1-4)[Fuc(a1-3)]GlcNAc
# In short: as §1
# [11] = biological target: Fuc(a1-2)Gal(b1-4)[Fuc(a1-3)]GlcNAc(b1-3)Gal(b1-4)[Fuc(a1-3)]GlcNAc(b1-3)Gal(b1-4)[Fuc(a1-3)]GlcNAc
# In short: as §1
# [12] = biological target: Fuc(a1-2)Gal(b1-4)[Fuc(a1-3)]GlcNAc(b1-3)GalNAc
# In short: as §1
# [13] = biological target: Fuc(a1-2)Gal(b1-4)[Fuc(a1-3)]GlcNAc(b1-3)[Neu5Ac(a2-6)Gal(b1-4)GlcNAc(b1-6)]Gal(b1-4)Glc
# In short: as §1
# [14] = biological target: Fuc(a1-2)Gal6S(b1-3)GlcNAc
# In short: as §1
# [15] = biological target: Fuc(a1-2)Gal6S(b1-3)GlcNAc6S
# In short: as §1
# Fuc(a1-2)Gal6S(b1-4)Glc = biological target: Fuc(a1-2)Gal6S(b1-4)Glc
# In short: as §1
# [16] = biological target: Fuc(a1-2)Gal6S(b1-4)Glc6S
# In short: as §1
# [17] = biological target: Fuc(a1-2)Gal6S(b1-4)GlcNAc
# In short: as §1
# Fuc(a1-2)[Gal(a1-3)]Gal = biological target: Fuc(a1-2)[Gal(a1-3)]Gal
# In short: as §1
# [18] = biological target: Fuc(a1-2)[Gal(a1-3)]Gal(b1-3)GalNAc
# In short: as §1
# [19] = biological target: Fuc(a1-2)[Gal(a1-3)]Gal(b1-3)GlcNAc
# In short: as §1
# [20] = biological target: Fuc(a1-2)[Gal(a1-3)]Gal(b1-3)GlcNAc(b1-2)Man(a1-3)[Fuc(a1-2)[Gal(a1-3)]Gal(b1-3)GlcNAc(b1-2)Man(a1-6)]Man(b1-4)GlcNAc(b1-4)GlcNAc
# In short: as §1
# [21] = biological target: Fuc(a1-2)[Gal(a1-3)]Gal(b1-3)GlcNAc(b1-2)Man(a1-3)[Fuc(a1-2)[Gal(a1-3)]Gal(b1-3)GlcNAc(b1-2)Man(a1-6)]Man(b1-4)GlcNAc(b1-4)[Fuc(a1-6)]GlcNAc
# In short: as §1
# [22] = biological target: Fuc(a1-2)[Gal(a1-3)]Gal(b1-3)GlcNAc(b1-3)GalNAc
# In short: as §1
# [23] = biological target: Fuc(a1-2)[Gal(a1-3)]Gal(b1-4)Glc
# In short: as §1
# [24] = biological target: Fuc(a1-2)[Gal(a1-3)]Gal(b1-4)GlcNAc
# In short: as §1
# [25] = biological target: Fuc(a1-2)[Gal(a1-3)]Gal(b1-4)GlcNAc(b1-2)Man(a1-3)[Fuc(a1-2)[Gal(a1-3)]Gal(b1-4)GlcNAc(b1-2)Man(a1-6)]Man(b1-4)GlcNAc(b1-4)GlcNAc
# In short: as §1
# [26] = biological target: Fuc(a1-2)[Gal(a1-3)]Gal(b1-4)GlcNAc(b1-2)Man(a1-3)[Fuc(a1-2)[Gal(a1-3)]Gal(b1-4)GlcNAc(b1-2)Man(a1-6)]Man(b1-4)GlcNAc(b1-4)[Fuc(a1-6)]GlcNAc
# In short: as §1
# [27] = biological target: Fuc(a1-2)[Gal(a1-3)]Gal(b1-4)GlcNAc(b1-3)GalNAc
# In short: as §1
# [28] = biological target: Fuc(a1-2)[Gal(a1-3)]Gal(b1-4)GlcNAc(b1-6)GalNAc
# In short: as §1
# [29] = biological target: Fuc(a1-2)[Gal(a1-3)]Gal(b1-4)[Fuc(a1-3)]Glc
# In short: as §1
# [30] = biological target: Fuc(a1-2)[Gal(a1-3)]Gal(b1-4)[Fuc(a1-3)]GlcNAc
# In short: as §1
# [31] = biological target: Fuc(a1-2)[Gal(a1-3)]Gal(b1-4)[Fuc(a1-3)]GlcNAc(b1-3)GalNAc
# In short: as §1
# [32] = biological target: Fuc(a1-2)[Gal(a1-4)]Gal(b1-4)GlcNAc
# In short: as §1
# [33] = biological target: Fuc(a1-2)[GalNAc(a1-3)]Gal
# In short: as §1
# [34] = biological target: Fuc(a1-2)[GalNAc(a1-3)]Gal(b1-3)GalNAc(a1-3)[Fuc(a1-2)]Gal(b1-4)GlcNAc
# In short: as §1
# [35] = biological target: Fuc(a1-2)[GalNAc(a1-3)]Gal(b1-3)GlcNAc
# In short: as §1
# [36] = biological target: Fuc(a1-2)[GalNAc(a1-3)]Gal(b1-3)GlcNAc(b1-2)Man(a1-3)[Fuc(a1-2)[GalNAc(a1-3)]Gal(b1-3)GlcNAc(b1-2)Man(a1-6)]Man(b1-4)GlcNAc(b1-4)GlcNAc
# In short: as §1
# [37] = biological target: Fuc(a1-2)[GalNAc(a1-3)]Gal(b1-3)GlcNAc(b1-2)Man(a1-3)[Fuc(a1-2)[GalNAc(a1-3)]Gal(b1-3)GlcNAc(b1-2)Man(a1-6)]Man(b1-4)GlcNAc(b1-4)[Fuc(a1-6)]GlcNAc
# In short: as §1
# [38] = biological target: Fuc(a1-2)[GalNAc(a1-3)]Gal(b1-3)GlcNAc(b1-3)GalNAc
# In short: as §1
# [39] = biological target: Fuc(a1-2)[GalNAc(a1-3)]Gal(b1-3)GlcNAc(b1-6)GalNAc
# In short: as §1
# [40] = biological target: Fuc(a1-2)[GalNAc(a1-3)]Gal(b1-4)Glc
# In short: as §1
# [41] = biological target: Fuc(a1-2)[GalNAc(a1-3)]Gal(b1-4)GlcNAc
# In short: as §1
# [42] = biological target: Fuc(a1-2)[GalNAc(a1-3)]Gal(b1-4)GlcNAc(b1-2)Man(a1-3)[Fuc(a1-2)[GalNAc(a1-3)]Gal(b1-4)GlcNAc(b1-2)Man(a1-6)]Man(b1-4)GlcNAc(b1-4)GlcNAc
# In short: as §1
# [43] = biological target: Fuc(a1-2)[GalNAc(a1-3)]Gal(b1-4)GlcNAc(b1-2)Man(a1-3)[Fuc(a1-2)[GalNAc(a1-3)]Gal(b1-4)GlcNAc(b1-2)Man(a1-6)]Man(b1-4)GlcNAc(b1-4)[Fuc(a1-6)]GlcNAc
# In short: as §1
binder,measurement,setting,value
CCL1 (Coprinopsis cinerea) (protein) MDTQAKPPAGRYVIYNRVLSPNGEKLALTYPGYQREALTLTPLHHSANQIWILNNWDATTSSLTPETARNTQVGWGSGNVPIVLPPGNYVWTLASSAGGYIIQDGGKTVYWNAGEAVANTKVSIGGDNGLQARWIFERV,glycan array binding signal (z-score),[1],-0.153
same,glycan array binding signal (z-score),[2],-0.052
same,glycan array binding signal (z-score),[3],-0.025
same,glycan array binding signal (z-score),[4],0.468
same,glycan array binding signal (z-score),[5],-0.142
same,glycan array binding signal (z-score),[6],-0.139
same,glycan array binding signal (z-score),[7],-0.076
same,glycan array binding signal (z-score),[8],-0.119
same,glycan array binding signal (z-score),[9],-0.108
same,glycan array binding signal (z-score),[10],-0.136
same,glycan array binding signal (z-score),[11],0.235
same,glycan array binding signal (z-score),[12],0.375
same,glycan array binding signal (z-score),[13],-0.142
same,glycan array binding signal (z-score),[14],-0.139
same,glycan array binding signal (z-score),[15],-0.041
same,glycan array binding signal (z-score),Fuc(a1-2)Gal6S(b1-4)Glc,-0.112
same,glycan array binding signal (z-score),[16],-0.033
same,glycan array binding signal (z-score),[17],-0.122
same,glycan array binding signal (z-score),Fuc(a1-2)[Gal(a1-3)]Gal,-0.136
same,glycan array binding signal (z-score),[18],-0.147
same,glycan array binding signal (z-score),[19],-0.132
same,glycan array binding signal (z-score),[20],-0.131
same,glycan array binding signal (z-score),[21],-0.129
same,glycan array binding signal (z-score),[22],-0.116
same,glycan array binding signal (z-score),[23],-0.113
same,glycan array binding signal (z-score),[24],-0.169
same,glycan array binding signal (z-score),[25],-0.115
same,glycan array binding signal (z-score),[26],-0.155
same,glycan array binding signal (z-score),[27],-0.154
same,glycan array binding signal (z-score),[28],-0.064
same,glycan array binding signal (z-score),[29],-0.168
same,glycan array binding signal (z-score),[30],-0.138
same,glycan array binding signal (z-score),[31],-0.124
same,glycan array binding signal (z-score),[32],-0.174
same,glycan array binding signal (z-score),[33],-0.152
same,glycan array binding signal (z-score),[34],-0.131
same,glycan array binding signal (z-score),[35],-0.127
same,glycan array binding signal (z-score),[36],-0.11
same,glycan array binding signal (z-score),[37],-0.122
same,glycan array binding signal (z-score),[38],-0.138
same,glycan array binding signal (z-score),[39],-0.118
same,glycan array binding signal (z-score),[40],-0.18
same,glycan array binding signal (z-score),[41],-0.146
same,glycan array binding signal (z-score),[42],-0.078
same,glycan array binding signal (z-score),[43],-0.136
